# Laboratory results from PubChem BioAssay AID662 (National Center for Advancing Translational Sciences (NCATS), 2007).
# Hit rate of the full screen: of about 71,000 compounds, about 1,800 (2.5%) were called active. Inconclusive results, whose numbers are uncertain, are shown with a selection of clear calls. Calls follow the shape of the dose curve; as a rule, active = well fitted activation curve with a large enough effect in the signal ratio, with a control signal flat (not every such curve was filed as active); inconclusive = small, poorly fitted or top-dose-only effect, or effect the other way, or a change in a side signal; inactive = flat fitted curve, though single readings scatter; the % refers to the signal ratio. A potency beside an inconclusive call is a rough fit, not a confirmed value.
# Assay: Cell signaling CRE-BLA (Fsk stim); as to activity change, negative = inhibition: % of control where 0% means no effect
# Settings: CHO CRE-bla reporter (cAMP response element driving beta-lactamase), forskolin EC10, beta-lactamase ratio; activity change, negative = inhibition: at 38.2 µM (top of the series) unless noted
# Excerpt: NIH Molecular Libraries Screening Centers Network [MLSCN]
# NIH Chemical Genomics Center [NCGC]
# Assay Provider: Marshall W. Nirenberg, U.S. National heart lung & blood institute
# Memories persist for different lengths of time, from seconds or minutes to a lifetime. There are two kinds of memory: short-term memory (STM) and long-term memory (LTM). STM lasts for minutes to hours, which maybe mediated by modifications of molecules involved in synaptic functions. LTM lasts for days or longer, and may be due to the formation of new synapses or restructuring of existing synapses. LTM, but not STM, requires gene transcription and synthesis of proteins. CREB (cyclic-AMP Responsive Element Binding Protein) is one of the candidates plays an important role for enhancement of some types of LTM. CREB, a family of transcription factors, regulates the transcription of genes containing cAMP Responsive Elements (CRE). CRE is a nucleotide sequence often found in the promoter regions of genes that are binding sites for CREB.
# Using a beta-lactamase reporter-gene under control of cAMP responsive element, a cell-based assay [CellSensor(TM) CRE-bla CHO developed by Invitrogen Corp.] was used to measure forskolin-induced signaling. Library compounds were measured for their ability to modulate positively or negatively the action of EC10 NKH 477, a water soluble forskolin, on reporter gene activity. Compounds were screened in a titration series in 1536-well format. Positive and negative modulators were identified based on the AC50 values derived from the screening data.
# NCGC Assay Protocol Summary
# 2000 cells/5uL in Opti-MEM medium containing 0.5% dialyzed FBS, 0.1 mM NEAA, 1 mM sodium pyruvate and 10 mM HEPES was dispensed into 1536-well plates and cells were cultured at 37 degrees Celsius overnight. […] And then the plates were incubated at 37 degrees Celsius for 3 hours. 1 uL of CCF4-dye mixture was added to each well. After incubated at room temperature for 2 hours the plates were measured on an EnVision plate reader at Excitation 405nm, Emission1=460nm and Emission 2=530nm. The %Activity was determined from the ratio of 460nm/530nm.
# Keywords: NIH Roadmap, MLSCN, MLSMR, qHTS, NCGC, CRE, beta-lactamase reporter-gene assay.
# Potency is read from the fitted curve at half-maximal effect; tags tell the direction and shape of the fitted curve.
Compound,"activity change, negative = inhibition",Potency
CC(C)Sc1ncnc2c1oc1ccccc12,inconclusive: 23.1%,
CCOC(=O)c1c(NC(=O)c2cccs2)sc(C)c1CC,,active: 12.6 µM
COCCOC(=O)C1=C(C)N=C2SCCC(=O)N2C1c1cccc(Br)c1 (centres undefined),,inactive
CC(C)C[C@@H](CC(=O)N[C@@H](CCCN)CC(=O)N[C@@H]1CCNC[C@H]1C(=O)N[C@H](CC(=O)N[C@@H](CCC(=O)O)CC(=O)O)Cc1ccccc1)NC(=O)[C@@H]1CCCC[C@H]1N,,inactive
COc1cccc(C(c2nnnn2C(C)(C)C)N2CCN(C3CCCCC3)CC2)c1OC (centres undefined),inconclusive: 0.215%,
O=c1c2ccccc2c(/C=N/n2cnnc2)c(O)n1-c1ccccc1,inconclusive: -16.3%,
COc1ccccc1-c1c(C)nn2c(N3CCCCCC3)cc(C)nc12,inconclusive: -26.4%,
COc1ccc(OCCSc2ncnc3nc[nH]c23)cc1,,inactive
COC(=O)[C@@]1(Cc2ccccc2)[C@H]2c3cc(C(=O)N(C)C)n(CCO)c3C[C@H]2CN1C(=O)c1ccccc1,,inactive
Cc1cccc(NC(=O)c2cc(-c3ccco3)nc3ccccc23)n1,,"inconclusive: 12.6 µM [rising, single point]"
COc1ccc(C)cc1-n1nnnc1SCc1cn2ccsc2n1,inconclusive: 18.2%,
CCc1nc(C)c(-c2ccccc2)c(=O)[nH]1,,inactive
CCCC1C(c2ccco2)NC(c2ccco2)CC1(C)O (centres undefined),,inactive
Nc1c(C(=O)NC2CC2)c2nc3ccccc3nc2n1-c1ccc2c(c1)OCO2,,active: 6.31 µM
COc1ccc(C(=O)COC(=O)c2ccco2)cc1,,inactive
CCOc1ccc2[nH]c(=O)c(C(c3nnnn3C3CCCCC3)N3CCN(CC)CC3)cc2c1 (centres undefined),,inactive
CCCc1c(-c2ccc(O)cc2)nn(-c2ccc(O)cc2)c1-c1ccc(O)cc1,inconclusive: -18%,"inconclusive: 25.1 µM [rising, single point]"
Cc1c(N=Cc2ccncc2)c(=O)n(-c2ccccc2)n1C,inconclusive: 11.2%,
COc1cccc(-c2nccc(NC3CCNCC3)n2)c1,,inactive
COc1ccc2nc3c(c([Si](C)(C)C(C)(C)C)c2c1)Cn1c-3cccc1=O,inconclusive: 12.8%,
COc1ccc(OC)c(NC(=O)CNC(=O)Cn2cnc3ccccc3c2=O)c1,,"inconclusive: 0.00398 µM [falling, full curve, poor fit]"
COC(=O)c1cc(OC)c(OC)cc1NC(=O)CN1CCOCC1,,"inconclusive: 10 µM [rising, partial curve]"
CC12CN3CC(C)(CN(C1)C3c1ccc3ccccc3c1O)C2=O (centres undefined),inconclusive: -18.9%,
